Experimental data taken from publication PMC4336329 (PLoS ONE, 2015).
About 14,000 (4.5%) of roughly 310,000 compounds showed an effect of 50% or more. The effect is printed as a negative number. The list shows a part of the results.
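Also: peak tail current of the secondary pulse compared with the same well before compound.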

What follows are compounds tested against human ether-à-go-go-related gene (hERG) potassium channel (human, UniProt Q12809) (assay: primary screen, population patch clamp on CHO cells stably expressing hERG).
Chain of human ether-à-go-go-related gene (hERG) potassium channel (Q12809 whole entry, looked up): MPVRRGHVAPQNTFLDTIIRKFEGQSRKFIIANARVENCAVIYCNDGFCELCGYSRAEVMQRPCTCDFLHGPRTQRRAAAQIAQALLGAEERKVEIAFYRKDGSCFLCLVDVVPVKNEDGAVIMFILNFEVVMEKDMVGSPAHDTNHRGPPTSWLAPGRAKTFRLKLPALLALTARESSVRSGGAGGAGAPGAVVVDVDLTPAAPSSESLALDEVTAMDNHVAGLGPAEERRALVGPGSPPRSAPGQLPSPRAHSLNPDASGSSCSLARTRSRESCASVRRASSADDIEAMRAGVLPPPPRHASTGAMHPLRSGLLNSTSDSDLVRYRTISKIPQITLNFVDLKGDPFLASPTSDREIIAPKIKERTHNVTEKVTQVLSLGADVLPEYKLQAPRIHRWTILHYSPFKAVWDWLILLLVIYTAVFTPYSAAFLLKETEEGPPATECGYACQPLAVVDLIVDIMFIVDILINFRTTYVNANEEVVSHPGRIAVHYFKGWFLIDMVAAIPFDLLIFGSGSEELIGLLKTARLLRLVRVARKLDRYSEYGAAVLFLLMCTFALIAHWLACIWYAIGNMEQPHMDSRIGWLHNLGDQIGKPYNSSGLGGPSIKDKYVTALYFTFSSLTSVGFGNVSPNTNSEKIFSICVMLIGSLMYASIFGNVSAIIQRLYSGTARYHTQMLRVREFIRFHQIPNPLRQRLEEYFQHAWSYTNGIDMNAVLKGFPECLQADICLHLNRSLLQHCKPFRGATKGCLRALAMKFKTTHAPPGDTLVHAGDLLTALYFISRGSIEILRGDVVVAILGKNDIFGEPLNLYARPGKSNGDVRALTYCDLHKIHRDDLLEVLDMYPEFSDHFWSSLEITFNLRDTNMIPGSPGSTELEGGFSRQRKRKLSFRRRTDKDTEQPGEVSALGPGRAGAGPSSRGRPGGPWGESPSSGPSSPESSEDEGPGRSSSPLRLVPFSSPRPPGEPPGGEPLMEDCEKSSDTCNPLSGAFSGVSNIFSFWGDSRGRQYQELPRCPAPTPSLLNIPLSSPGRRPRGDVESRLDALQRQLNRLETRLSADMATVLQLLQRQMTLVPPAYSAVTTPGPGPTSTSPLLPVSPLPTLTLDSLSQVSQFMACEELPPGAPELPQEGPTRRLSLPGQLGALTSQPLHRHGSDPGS
For `COc1ccc(C(Nc2cc(C)ccn2)c2ccc3ccc(C)nc3c2O)cc1` (stereo not drawn), the “hERG current change (%, negative = inhibition) at 10uM” value was -15.3%.
For `CC(C)Cn1nc(-c2ccccc2)c2ccccc2c1=O`, the “hERG current change (%, negative = inhibition) at 10uM” value was 20.1%.
For `CCC(=O)c1ccc(CCCCCC(=O)O)s1`, the “hERG current change (%, negative = inhibition) at 10uM” value was 5.76%.
With `COc1ccc(OC)c(CNC(=O)CCc2cn(C)c3ccccc23)c1` the “hERG current change (%, negative = inhibition) at 10uM” value was 5.44%.
`CC(C)[C@H](NC(=O)N1CCn2c1nc1ccccc12)C(=O)NCc1ccc2c(c1)OCO2` was tested, and the “hERG current change (%, negative = inhibition) at 10uM” value was -0.903%.
In the case of `CCCCC(=O)Nc1ccc2c(c1)nc(CCNC(=O)c1ccco1)n2C`, the “hERG current change (%, negative = inhibition) at 10uM” value is reported as -11.1%.
`O=C1C=C(c2ccc3c(c2)OCCO3)C[C@@H](c2ccc(F)cc2)C1` was tested, and the “hERG current change (%, negative = inhibition) at 10uM” value was 8.1%.
For `CCCNC(=O)CC1C(=O)N(Cc2ccccc2)C(C)c2nc3ccccc3n21` (stereo not drawn), the “hERG current change (%, negative = inhibition) at 10uM” value was 4.85%.
For `CC(C)(C)NC(=O)NC(=O)CSc1nnc(-c2ccccc2F)n1N`, the “hERG current change (%, negative = inhibition) at 10uM” value was 13.3%.
`Cn1cccc1C(C(=O)NC1CCCCC1)N(C(=O)Cc1cccs1)c1ccc2c(c1)OCO2` (stereo not drawn) was tested, and the “hERG current change (%, negative = inhibition) at 10uM” value was -5.67%.
`CC(NC(=O)C12CC3CC(CC(O)(C3)C1)C2)c1ccccc1` (stereo not drawn) was tested, and the “hERG current change (%, negative = inhibition) at 10uM” value was 6.83%.
`CCCC(=O)Nc1ccc(S(=O)(=O)Nc2cc(OC)nc(OC)n2)cc1` was tested, and the “hERG current change (%, negative = inhibition) at 10uM” value was 8.83%.
For `CCC(=O)N1CC2(C)CN(C(=O)CC)CC(C)(C1)C2`, the “hERG current change (%, negative = inhibition) at 10uM” value was 3.98%.
For `Cc1ccccc1NC1=C/C(=N\S(=O)(=O)c2ccc(C(=O)O)cc2)c2ccccc2C1=O`, the “hERG current change (%, negative = inhibition) at 10uM” value was 2.23%.
In the case of `Cc1ccc(-c2c[n+](Cc3cccc(Cl)c3)c3n2CCC3)cc1.[Br-]`, the “hERG current change (%, negative = inhibition) at 10uM” value is reported as -57.7%.
With `COc1ccc(OCC(O)CNC(=O)Nc2cc(C)cc(C)c2)cc1` (stereo not drawn) the “hERG current change (%, negative = inhibition) at 10uM” value was 0.613%.
For `COc1ccc(CN2C(=O)[C@@H]3C(c4ccccc4Cl)=NO[C@@H]3C2=O)cc1`, the “hERG current change (%, negative = inhibition) at 10uM” value was -5.69%.
In the case of `Nc1ccc2nc(CCCCCCc3nc4ccc(N)cc4[nH]3)[nH]c2c1`, the “hERG current change (%, negative = inhibition) at 10uM” value is reported as 19.6%.
In the case of `CCc1cccc(N(C(=O)c2csnn2)C(C(=O)NC2CCCC2)c2cccnc2)c1` (stereo not drawn), the “hERG current change (%, negative = inhibition) at 10uM” value is reported as -7.88%.
For `CC1CCCCN1C(=O)CSc1nnc2c(n1)[nH]c1ccccc12` (stereo not drawn), the “hERG current change (%, negative = inhibition) at 10uM” value was -4.49%.
In the case of `CCOC(=O)c1sc(Nc2cccc(C)c2C)nc1C`, the “hERG current change (%, negative = inhibition) at 10uM” value is reported as -21.7%.
With `Cc1c(NC(=O)CN2C(=O)NC3(CCC(C)CC3)C2=O)c(=O)n(-c2ccccc2)n1C` (stereo not drawn) the “hERG current change (%, negative = inhibition) at 10uM” value was 19.4%.
`O=C(Nc1ccccc1-c1ccccc1)c1ccc(Cl)c([N+](=O)[O-])c1` was tested, and the “hERG current change (%, negative = inhibition) at 10uM” value was 14.1%.
In the case of `Cc1ccccc1NC(=O)c1cc(=O)c2ccccc2o1`, the “hERG current change (%, negative = inhibition) at 10uM” value is reported as -5.49%.
